We go through one molecule from patent US20140161732A1 (published 2014).

The assay has as its target T1, KDR expressed on transiently transfected 293H cells (human, UniProt P35968).
T1 construct: whole, on cells; also called KDR-expressing cells
Put plainly: fluorescent bead binding to KDR-transfected and mock 293H cells.

T1 sequence (P35968 20-1356): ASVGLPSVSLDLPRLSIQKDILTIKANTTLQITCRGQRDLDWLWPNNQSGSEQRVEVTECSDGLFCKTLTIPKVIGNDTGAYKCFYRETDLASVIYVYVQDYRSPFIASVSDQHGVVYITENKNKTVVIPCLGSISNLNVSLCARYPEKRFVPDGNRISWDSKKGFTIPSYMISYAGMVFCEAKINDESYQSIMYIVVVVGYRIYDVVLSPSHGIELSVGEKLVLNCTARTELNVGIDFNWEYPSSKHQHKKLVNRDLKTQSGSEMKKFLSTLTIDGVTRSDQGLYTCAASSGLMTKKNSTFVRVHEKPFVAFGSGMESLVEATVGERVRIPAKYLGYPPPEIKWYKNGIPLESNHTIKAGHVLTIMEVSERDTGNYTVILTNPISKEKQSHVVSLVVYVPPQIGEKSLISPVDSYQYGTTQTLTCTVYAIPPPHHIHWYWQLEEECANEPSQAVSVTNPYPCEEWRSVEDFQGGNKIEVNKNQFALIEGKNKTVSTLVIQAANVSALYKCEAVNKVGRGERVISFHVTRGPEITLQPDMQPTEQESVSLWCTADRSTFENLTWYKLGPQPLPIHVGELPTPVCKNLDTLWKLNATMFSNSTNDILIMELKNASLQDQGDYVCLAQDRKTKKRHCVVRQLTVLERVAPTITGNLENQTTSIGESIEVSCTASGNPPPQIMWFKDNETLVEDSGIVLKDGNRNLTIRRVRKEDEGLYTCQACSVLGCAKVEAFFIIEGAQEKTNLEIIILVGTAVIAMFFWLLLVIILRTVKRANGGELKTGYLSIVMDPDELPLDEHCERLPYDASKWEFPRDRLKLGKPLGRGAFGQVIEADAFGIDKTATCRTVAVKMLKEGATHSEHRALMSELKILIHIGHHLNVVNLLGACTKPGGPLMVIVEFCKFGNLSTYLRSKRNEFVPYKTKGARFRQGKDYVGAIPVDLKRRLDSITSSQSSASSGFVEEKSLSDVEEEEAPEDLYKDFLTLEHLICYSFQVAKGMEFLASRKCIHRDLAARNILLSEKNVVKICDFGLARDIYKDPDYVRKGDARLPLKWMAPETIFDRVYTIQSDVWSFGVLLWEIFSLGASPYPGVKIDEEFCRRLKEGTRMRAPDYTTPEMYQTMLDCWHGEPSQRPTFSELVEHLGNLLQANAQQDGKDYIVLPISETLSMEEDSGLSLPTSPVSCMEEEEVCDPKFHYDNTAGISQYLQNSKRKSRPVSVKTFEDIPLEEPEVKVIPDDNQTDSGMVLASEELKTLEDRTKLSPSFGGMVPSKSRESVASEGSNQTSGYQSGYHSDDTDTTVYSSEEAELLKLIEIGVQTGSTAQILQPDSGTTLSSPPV

B1: unconjugated neutravidin-coated fluorescent beads (other, UniProt P02701 25-152, looked up)
chain: ARKCSLTGKWTNDLGSNMTIGAVNSRGEFTGTYITAVTATSNEIKESPLHGTQNTINKRTQPTFGFTVNWKFSESTTVFTGQCFIDRNGKEVLKTMWLLRSSVNDIGDDWKATRVGINIFTRLRTQKE
modifications: on 2 micron red fluorescent microspheres
notes: negative control; also called avidin beads with nothing attached
Turning to B1, the binding result is recorded as “no binding”.
